Reference: article PMC5865128 (Nature Communications, 2018)
Some values that stand alone complete this part of the results.

Target: naturally cleaved, untagged human BAFF, wild type (human)
Assay: SEC; concentrated 293 T supernatants of naturally cleaved BAFF fractionated on Superdex 200 Increase; fractions blotted with anti-BAFF antibodies; oligomer seen in the fractions

Substance: naturally cleaved, untagged human BAFF, wild type (ligand)
- stoichiometry N (3-mer eluting in fractions 15–16): 3
- stoichiometry N (60-mer eluting in fractions 9–10): 60
